Drawing on PMC8857484, this text covers binding for five substances.

By UniProt entry, the sequences of proteins in these tests, tags left out. Where a name states a change or a piece, a line headed by the entry shows the natural chain unless it says otherwise. Residues count along the entry.
UniProt Q13586: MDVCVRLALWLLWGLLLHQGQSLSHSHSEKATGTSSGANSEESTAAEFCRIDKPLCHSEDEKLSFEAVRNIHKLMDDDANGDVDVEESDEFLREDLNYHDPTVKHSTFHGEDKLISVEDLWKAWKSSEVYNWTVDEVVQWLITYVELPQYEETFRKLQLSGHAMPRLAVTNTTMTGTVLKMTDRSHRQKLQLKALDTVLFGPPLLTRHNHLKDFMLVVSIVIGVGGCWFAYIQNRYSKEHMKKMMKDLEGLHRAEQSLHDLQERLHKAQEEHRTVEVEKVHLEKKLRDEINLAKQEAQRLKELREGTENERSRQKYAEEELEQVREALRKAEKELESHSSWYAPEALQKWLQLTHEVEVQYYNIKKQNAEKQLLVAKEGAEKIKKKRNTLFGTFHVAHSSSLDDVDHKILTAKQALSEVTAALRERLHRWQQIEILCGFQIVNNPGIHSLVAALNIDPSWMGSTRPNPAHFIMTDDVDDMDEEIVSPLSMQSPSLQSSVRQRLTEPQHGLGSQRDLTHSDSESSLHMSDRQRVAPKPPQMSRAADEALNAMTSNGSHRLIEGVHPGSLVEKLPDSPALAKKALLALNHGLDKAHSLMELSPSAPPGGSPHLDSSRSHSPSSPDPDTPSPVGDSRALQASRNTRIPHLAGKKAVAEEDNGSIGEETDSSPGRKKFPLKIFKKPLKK
UniProt P70302, residues 23-685: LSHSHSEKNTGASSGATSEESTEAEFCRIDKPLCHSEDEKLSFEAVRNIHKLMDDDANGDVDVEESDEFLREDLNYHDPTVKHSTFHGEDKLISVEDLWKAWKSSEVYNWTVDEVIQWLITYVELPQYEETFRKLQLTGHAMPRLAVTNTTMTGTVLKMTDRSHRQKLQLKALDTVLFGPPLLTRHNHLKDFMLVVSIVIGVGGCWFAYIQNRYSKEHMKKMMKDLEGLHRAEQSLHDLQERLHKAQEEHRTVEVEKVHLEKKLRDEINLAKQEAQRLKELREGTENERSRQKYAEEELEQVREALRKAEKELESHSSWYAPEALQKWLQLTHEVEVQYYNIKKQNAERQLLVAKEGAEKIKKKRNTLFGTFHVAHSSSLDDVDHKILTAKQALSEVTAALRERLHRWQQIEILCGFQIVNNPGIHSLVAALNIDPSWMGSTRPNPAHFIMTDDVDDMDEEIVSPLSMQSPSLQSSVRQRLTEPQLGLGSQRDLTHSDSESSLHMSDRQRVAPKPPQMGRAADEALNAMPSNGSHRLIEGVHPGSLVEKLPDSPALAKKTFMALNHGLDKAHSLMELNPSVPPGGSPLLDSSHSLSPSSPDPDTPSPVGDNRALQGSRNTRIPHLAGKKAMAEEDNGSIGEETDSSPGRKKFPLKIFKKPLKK

The target of test [1] is T1, uncoordinated 93 homolog B1 (UNC93B1), endogenous in HEK-293T cells (human (endogenous in HEK-293T)) (UniProt Q9H1C4).
T1 sequence: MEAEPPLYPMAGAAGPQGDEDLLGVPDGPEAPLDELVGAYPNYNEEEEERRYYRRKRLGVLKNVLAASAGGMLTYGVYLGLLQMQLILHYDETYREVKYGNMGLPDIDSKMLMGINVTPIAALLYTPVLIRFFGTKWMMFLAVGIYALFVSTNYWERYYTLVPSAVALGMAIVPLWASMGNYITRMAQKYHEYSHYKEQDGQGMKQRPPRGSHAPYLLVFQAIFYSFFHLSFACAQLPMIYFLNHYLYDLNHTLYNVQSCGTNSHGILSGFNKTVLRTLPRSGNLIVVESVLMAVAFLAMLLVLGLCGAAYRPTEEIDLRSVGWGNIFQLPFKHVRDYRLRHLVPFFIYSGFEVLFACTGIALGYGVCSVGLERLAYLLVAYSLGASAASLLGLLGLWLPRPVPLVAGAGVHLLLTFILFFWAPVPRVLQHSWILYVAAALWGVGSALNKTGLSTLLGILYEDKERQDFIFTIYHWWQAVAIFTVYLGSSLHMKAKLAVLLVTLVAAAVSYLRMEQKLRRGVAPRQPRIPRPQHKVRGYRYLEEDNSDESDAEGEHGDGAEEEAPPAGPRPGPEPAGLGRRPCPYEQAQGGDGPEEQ
Put plainly: co-IP; lysates of mouse dendritic cells and of HEK-293T STIM1^flip-in cells (0.5% NP-40, 50 mM Tris pH 7.4, 150 mM NaCl, 5 mM EDTA); immunoprecipitated with anti-UNC93B1 overnight at 4 °C, protein A/G agarose; blot probed with anti-STIM1.

The next test addresses T2, UNC93B1-FLAG-MYC (UniProt Q9H1C4).
T2 sequence: T1 sequence
Put plainly: co-IP; WT HEK-293T cells transfected with UNC93B1-FLAG and a STIM1 construct; lysis in 0.5% NP-40, 50 mM Tris pH 7.4, 150 mM NaCl, 5 mM EDTA; immunoprecipitated with anti-FLAG; blot probed with anti-STIM1 (N-term) and anti-FLAG.

Test [2] has as its target T3, uncoordinated 93 homolog B1 (UNC93B1), endogenous in the mouse dendritic cell line 2114 (mouse (endogenous in the dendritic cell line 2114)) (UniProt Q8VCW4).
T3 sequence: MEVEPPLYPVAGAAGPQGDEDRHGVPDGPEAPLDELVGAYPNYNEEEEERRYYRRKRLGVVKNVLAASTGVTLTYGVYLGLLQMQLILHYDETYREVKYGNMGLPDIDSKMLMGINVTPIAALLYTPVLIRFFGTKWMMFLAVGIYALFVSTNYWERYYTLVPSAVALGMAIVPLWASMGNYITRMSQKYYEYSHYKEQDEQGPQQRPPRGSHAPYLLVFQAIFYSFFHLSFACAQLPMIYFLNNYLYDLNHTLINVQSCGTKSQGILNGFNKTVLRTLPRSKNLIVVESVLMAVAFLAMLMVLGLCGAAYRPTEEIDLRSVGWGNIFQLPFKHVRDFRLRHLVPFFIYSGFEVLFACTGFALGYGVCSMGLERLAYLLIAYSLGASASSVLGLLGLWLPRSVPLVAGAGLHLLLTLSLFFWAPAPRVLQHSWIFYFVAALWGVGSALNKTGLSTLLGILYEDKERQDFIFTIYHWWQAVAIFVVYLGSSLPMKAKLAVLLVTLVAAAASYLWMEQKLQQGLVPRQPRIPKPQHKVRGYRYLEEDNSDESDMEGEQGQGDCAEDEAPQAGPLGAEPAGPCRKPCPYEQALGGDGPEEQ
Put plainly: co-IP; lysates of mouse dendritic cells and of HEK-293T STIM1^flip-in cells (0.5% NP-40, 50 mM Tris pH 7.4, 150 mM NaCl, 5 mM EDTA); immunoprecipitated with anti-UNC93B1 overnight at 4 °C, protein A/G agarose; blot probed with anti-STIM1.

Results are given in words; binding and its absence hold for the method and conditions named. In cells and extracts the contact can be indirect. Some entries that bind do so weakly or less than the wild type. For some assays here: Where a sequence is shown, tags or fusion partners need not be part of it.

Take “STIM1 stably overexpressed with the flip-in system in HEK-293T cells (from UniProt Q13586 23-685)”: the binding entry in test [1] was “binds”. For the substance “STIM1^TM4-YFP (STIM1 chimera containing the TLR4 TM domain) (from UniProt Q13586 23-213; O00206 632-652; Q13586 235-685)”, the binding result in the test with UNC93B1-FLAG-MYC is “binds”.

For “mCherry-STIM1 (1–152) (from UniProt Q13586 23-152) (domain or fragment)”, in the test with UNC93B1-FLAG-MYC, the binding result is “no binding”. Same read-out and setting: to “mCherry-STIM1 (1–240) (from UniProt Q13586 23-240) (domain or fragment)” belongs “binds”. For “stromal interaction molecule 1 (STIM1), endogenous in the mouse dendritic cell line 2114 (from UniProt P70302 23-685)”, in test [2], the binding result is on record as “binds”.
